The values that follow come from patent US20240132603A1 (HARBOUR BIOMED US, published 2024).

Assay [1] has as its target T1, human CCR8 (human, UniProt P51685 1-355).
T1 construct: whole, on cells; construct used for the overexpressing cell lines is not described; also called hCCR8
As to the kind of experiment: FACS, CHO-K1-hCCR8 cells. Here is the method:
(§1) Cells overexpressing human CCR8 were digested with pancreatin, counted and resuspended to a cell density of 1E6 cells/mL. The cell suspension was added to a 96-well V-bottom plate at 100 μL/well and centrifuged at 300 g for 5 min, and the supernatant was discarded. The anti-CCR8 antibodies provided herein was used as a primary antibody and diluted in a 5-fold gradient with an FACS buffer (DPBS containing 2% FBS) from 200 nM. The diluted primary antibody was added at 100 μL/well to resuspend the cells, and the mixture was incubated at 4° C. for 1 h. The plate was washed twice with DPBS and centrifuged at 300×g for 5 min, and the supernatant was discarded. The secondary antibody diluted in a 1:1000 ratio with an FACS buffer was added at 100 μL/well to suspend the cells, and the mixture was incubated at 4° C. for 40 min. The plate was washed twice with DPBS and centrifuged at 300×g for 5 min, and the supernatant was discarded. DPBS was added at 200 μL/well to suspend the cells, and the mixture was loaded on an FACS machine for analysis.
A general note: A flow cytometer gives signals particle by particle.

The target in assay [2] is T1, human CCR8. The assay is described as follows: FACS on CHO-K1 cells overexpressing human CCR8. How it is done: as §1
T1 sequence (P51685 whole entry): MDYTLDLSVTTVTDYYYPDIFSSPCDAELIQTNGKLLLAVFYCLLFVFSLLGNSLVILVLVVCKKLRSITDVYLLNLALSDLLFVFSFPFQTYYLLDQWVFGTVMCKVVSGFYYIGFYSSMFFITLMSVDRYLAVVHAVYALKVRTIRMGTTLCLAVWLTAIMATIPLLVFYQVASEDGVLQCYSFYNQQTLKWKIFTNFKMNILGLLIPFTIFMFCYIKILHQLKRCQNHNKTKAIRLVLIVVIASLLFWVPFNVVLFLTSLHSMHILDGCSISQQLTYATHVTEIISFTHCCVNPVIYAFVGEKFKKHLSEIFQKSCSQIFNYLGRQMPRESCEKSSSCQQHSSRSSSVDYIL

B1: PR005124 (antibody, human IgG1, kappa)
heavy: QVQLVESGGGVVQPGRSLRLSCVASGFTFSSYGMHWVRQAPGKGLEWVAVIWHDGSNIFYADSVKGRFTISRDNSKNTLYLQMNSLRAEDTAVYWCARHRRSDYWYYGMDVWGQGTTVTVSS[human IgG1 constant region cut from this listing]
light: [about 100 residues cut from this listing][about 120 residues cut from this listing]
notes: fully human, human IgG1 constant region
B1 had an EC50 with human CCR8 [1] of 2.52 nM.

B2: PR005127 (antibody, human IgG1, kappa)
heavy: QVQLVESGGGVVQPGRSLRLSCVASGFTFSSYGMHWVRQAPGKGLEWVAVIWHDGSNIFYADSVKGRFTISRDNSKNTLYLQMNSLRAEDTAVYWCARHRRSDYWYYGMDVWGQGTTVTVSSASTKGPSVFPLAPSSKSTSGGTAALGCLVKDYFPEPVTVSWNSGALTSGVHTFPAVLQSSGLYSLSSVVTVPSSSLGTQTYICNVNHKPSNTKVDKKV[human IgG1 Fc with changes cut from this listing]
light: [about 100 residues cut from this listing][about 120 residues cut from this listing]
notes: fully human; same VH/VL as PR005124, other heavy chain entry
B2 gave an EC50 with human CCR8 [1] of 2.19 nM.

B3: PR004974 (antibody, human IgG1, kappa)
heavy: QITLKESGPTLVKPTQTLTLTCTFSGFSLSTSGVGVGWIRQPPGKALEWLALIYWNDDKRYSPSLKSRLTITKDTSKNQVVLTMTNMDPVDTATYYCAHRRLRYSGRYYYYYGTDVWGQGTTVTVSS[human IgG1 constant region cut from this listing]
light: EIVMTQSPATLSVSPGERATLSCRASQSVSSNLVWYQQKPGQAPRLLIYGASIRATGIPARFSGSGSGTEFTLTISSLQSEDFAVYYCQQYNNWPYTFGQGTKLEIKRTVAAPSVFIFPPSDEQLKSGTASVVCLLNNFYPREAKVQWKVDNALQSGNSQESVTEQDSKDSTYSLSSTLTLSKADYEKHKVYACEVTHQGLSSPVTKSFNRGEC
notes: fully human, from single cell clone screening
Turning to B3, the “EC50 (read off the curve)” value with human CCR8 [2] was about 0.4 nM.

B4: PR005293 (antibody, human IgG1, kappa)
heavy: QITLKESGPTLVKPTQTLTLTCTFSGFSLSTSGVGVGWIRQPPGKALEWLALIYWNDDKRYSPSLKSRLTITKDTSKNQVVLTMTNMDPVDTATYYCAHRRLRYSGRYYYYYGTDVWGQGTTVTVSSASTKGPSVFPLAPSSKSTSGGTAALGCLVKDYFPEPVTVSWNSGALTSGVHTFPAVLQSSGLYSLSSVVTVPSSSLGTQTYICNVNHKPSNTKVDKKV[human IgG1 Fc with changes cut from this listing]
light: B3 light
notes: fully human; same VH/VL as PR004974, other heavy chain entry
With B4, in the assay with human CCR8 [2], the “EC50 (read off the curve)” value is about 0.1 nM.

A word on the EC50: it is the concentration at which the effect is half-maximal. The low end stands for higher potency in that assay, the high end for lower potency in that assay. A word on the EC50 (read off the curve): it is the concentration needed to bring the measured effect to its halfway point.
